Experimental data published in the RNAGym collection of RNA variant scans (doi:10.1073/pnas.2313332121).
This sample is rich in variants without activity.

B1: TPR 5TU (parent)
chain: GGAUCUUCUCGAUCUAACAAAAAAGACAAAUCUGCCACAAAGCUUGAGAGCAUCUUCGGAUGCAGAGGCGGCAGCCUUCGGUGGCGCGAUAGCGCCAACGUUCUCAACUAUGACACGCAAAACGCGUGCUCCGUUGAAUGGAGUUUAUCAUG

Variants of: B1
Experiment: polymerase ribozyme fitness, log enrichment relative to wild type (log ratio); higher = more active; in vitro selection for triplet polymerase activity
Procedure, shortened: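 Only genotypes with ≥10 input reads and ≥1 read per output were kept after Illumina sequencing of input and output libraries. These libraries were PCR-built, transcribed mutants of each subunit of a heterodimeric triplet polymerase ribozyme, each put through one triplicate in vitro selection round with frozen incubation at −7 °C, gel excision of extended constructs, streptavidin-bead capture and RT-PCR. Fitness is a logarithmic ratio of genotype enrichment to wild-type enrichment, from inverse-variance-weighted replicate averages, with the logarithm in base 2.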

Going from GGAUCUUCUCGAUCUAACAAAAAAGACAAAUCUGCCACAAAGCUUGAGAGCAUCAUCCGAUGCAGAGGCGGCAGCCUUCGGUGGCGCGAUAGCGCCAACGUUCUCAACUAUGACACGCAAAACGCGUGCUCCGUUGAAUGGAGUUUAUCAUG to GGAUCUUCUCGAUCUAACAAAAAAGACAAAUCUGCCACAAAGCUUGAGAGCAUCAUCGGAUGCAGAAGCGGCAGCCUUCGGUGGCGCGAUAGCGCCAACGUUCUCAACUAUGACACGCAAAACGCGAGCUCCGUUGAAUGGAGUUUAUCAUG, the “polymerase ribozyme fitness (log ratio)” value falls from -0.661 to at most -4.2.

GGAUCUUCUCGAUCUAACAAAAAAGACAAAUCUGCCACAAAGCUUGAGAGCAUCAUCCGAUGCAGAGGCGGCAGCCUUCGGUGGCGCGACAGCGCCAACGUUCUCAACUAUGACACGCAAAACGCGUGCUCCGUUGAAUGGAGUUUAUCAUG and GGAUCUUCUCGAUCUAACAAAAAAGACAAAUCUGCCACAAAGCUUGAGAGCAUCAUCGGAUGCAGAGGCGGCAGCCUUCGGUGGCGAGAUAGCGCCAACGUUCUCAACUAUGACACGCAAAACGCGUGCUCCGUUGAAUGGAGUUUAUCAUG cannot be ordered by “polymerase ribozyme fitness (log ratio)” value: at most -4.2 for the first, at most -4.2 for the second.

Compared with GGAUCUUCUCGAUCUAACAAAAAAGACAAAUCUGCCACAAAGCUUGAGAGCAUCAUCGGAUGCAGAGGCGGCAGCCUUCGGUGGCGCGAUAGCGCCAACGUUCUCAACUAUGACACGCAAAACGAGUGCUCCGUUGAAUGAAGUUUAUCAUG, GGAUCUUCUCGAUCUAACAAAAAAGACAAAUCUGCCACAAAGCUUGAGAGCAUCAUCGGAUGCAGAGGCGGCAGCCUUCGGUGGCGCGAUAGUGUUAACGUUCUCAACUAUGACACGCAAAACGCGUGCUCCGUUGAAUGGAGUUUAUCAUG is higher in “polymerase ribozyme fitness (log ratio)” value: -4.12 for the first, -3 for the second.

Going from GGAUCUUCUCGAUCUAACAAAAAAGACAAAUCUGCCACAAAGCUUGAGAGCAUCAUCGGAUGCAGAGGCGGCAGCCUUCGGUGGCGCGAUAGCGCCAACGUUCUGAACUAUGACACGCAAAACGCGUGCUCCGUUGAAUGGAGUUUAUCAUG to GGAUCUUCUCGAUCUAACAAAAAAGACAAAUCUGCCACAAAGCUUGAGAGCAUCAUCGGAUGCAGAGGCGGCAGCCUUCGGUGGCGCGAUAGCGCCAACGUUCUAAACUAUGACACGCAAAACGCGUGCUCCGUUGAAUGGAGUUUAUCAUG, the “polymerase ribozyme fitness (log ratio)” value rises from -1.73 to -0.692.

Going from GGAUCUUCUCGAUCUAACAAAAAAGACAAAUCUGCCACAAAGCUUGAGAGCAUCAUCGGAUGCAGAGGCGGCAGCCUUCGGUGGCGCGAUAGCGCAAACGUUCUCAACUAUGACACGCAAAACGCGUGCUCCGUUGAAUGGAGUUUAUCAUG to GGAUCUUCUCGAUCUAACAAAAAAGACAAAUCUGCCACAAAGCUUGAGAGCAUCAUCGGAUGCAGAGGCGGCAGCCUUCGGUGGCGCGAUAGUGCCAACGUUCUCAACUAUGACACGCAAAACGCGUGCUCCGUUGAAUGGAGUUUAUCAAG, the “polymerase ribozyme fitness (log ratio)” value falls from -1.21 to at most -4.2.

GGAUCUUCUCGAUCUAACAAAAAAGACAAAUCUGCCACAAAGCUUGAGAGCAUCAUCGGAUGCAGAGGCGGCAGCCUUCGGUGGCGUGACAGCGCCAACGUUCUCAACUAUGACACGCAAAUCGCGUGCUCCGUUGAAUGGAGUUUAUCAUG and GGAUCUUCUCGAUCUAACAAAAAAGACAAAUCUGCCACAAAGCUUGAGAGCAUCAUCUUAUGCAGAGGCGGCAGGCUUCGGUGGAGCGAUAGCGCCAACGUUGUCAACUAUGACUCGCAAAACGCGUGCUCCGUUGAAUGGAGUUUAUCAUG cannot be ordered by “polymerase ribozyme fitness (log ratio)” value: at most -4.2 for the first, at most -4.2 for the second.

GGAUCUUCUCGAUCUAACAAAAAAGACAAAUCUGCCACAAAGCUUGAGAGCAUCAUCGGAUACAGAGGCGGCGGCCUUCGGUGGCGCGAUAGCGCCAACGUUCUCAACUAUGACACGCAAAACGCGUGCUCCGUUGAAUGGAGUUUAUCAUG and GGAUCUUCUCGAUCUAACAAAAAAGACAAAUCUGCCACAAAGCUUGAGAGCAUCAUCGGAUGCAGAGGCGGCAGCCUUCGGUGGCGGGAUAGCGCCAAAGUUCUCAACUAUGACACGCAAAACGCGUACUCCGUUGAAUGGAGUUUAUCAUG cannot be ordered by “polymerase ribozyme fitness (log ratio)” value: at most -4.2 for the first, at most -4.2 for the second.

GGAUCUUCUCGAUCUAACAAAAAAGACAAAUCUGCCACAAAGCUUGAGAGCAUCAUCGGAUGCAGAGGCGGCAGCCUUCGGUGGAGCGAUAGCGCCAACAUUCUCAACUAUGACACGCAAGACGCGUGCUACGUUGAAUGGAGUUUAUCAUG and GGAUCUUCUCGAUCUAACAAAAAAGACAAAUCUGCCACAAAGCUUGAGAGCAUCAUCGCAUGCAGAGGCGGAAGCCUUCGGUGGCGCGAUAGCGCCAAGGUUCUCAACUAUGACACGCAAAACGCGUGCUCCGUUGAAUGUAGUUUAUCAUG cannot be ordered by “polymerase ribozyme fitness (log ratio)” value: at most -4.2 for the first, at most -4.2 for the second.

Going from GGAUCUUCUCGAUCUAACAAAAAAGACAAAUCUGCCACAAAGCUUGAGAGCAUCAUCGGAUGCAGAGGCGGCAGCCUUCGGUGGGGCGAUAGCGCCAACGUUCUCAACUAUGAAACGCAAAACGCGUGCUCCGUUGAAUGGCGUUUAUCAAG to GGAUCUUCUCGAUCUAACAAAAAAGACAAAUCUGCCACAAAGCUUGAGAGCAUCAUCGGAUGCAGAGGCGGCAGCCUUCGGUGGCGCGAUAGCGCAAACGUUCUCAACUAUGACACGCAAAACGCGUGCUCCGUUCAAUGGAGUUUAUCAUG, the “polymerase ribozyme fitness (log ratio)” value rises from -4.19 to -3.78.

Going from GGAUCUUCUCGAUCUAACAAAAAAGACAAAUCUGCCACAAAGCUUGAGAGCAUCAUCGCAUGCAGAGGCGGCAGCCUUCGGUGGCGCGAUAGCGCCAACGUUUGCAACUAUGACACGCAAAACGCGUGCUCCGUUGAAUGGAGUUUAUCAUG to GGAUCUUCUCGAUCUAACAAAAAAGACAAAUCUGCCACAAAGCUUGAGAGCAUCAUCGGAUGCAGAAGCGUCAGCCUUCGGUGGCGCGAUAGCGCCAACGUUCUCAACUAUGACACGCAAAACGCGUGCUCCGUUGAAUGGAGUUUAUCAUG, the “polymerase ribozyme fitness (log ratio)” value falls from -3.29 to at most -4.2.

First: GGAUCUUCUCGAUCUAACAAAAAAGACAAAUCUGCCACAAAGCUUGAGAGCAUCAUCGGAUGCAAAGGCGGCAGCCUUCGGUGGCGCGAUAGCGCCAACGUUAUCAACUAUGACACGCAAAACGCGUGCUCCGUUGAAUGGAGUUUAUCAUG
Second: GGAUCUUCUCGAUCUAACAAAAAAGACAAAUCUGCCACAAAGCUUGAGAGCAUCAUCGGAUGCAGAGGCGGCAGCCUUCGGUGGAGCGAUAGCGCCAACGUUCUCAACUAUGACACGCAAAACGCGUGCUCCCUUGAAUGGAGUUUAUCAUG
The “polymerase ribozyme fitness (log ratio)” value of the first is lower: at most -4.2 for the first, -3.05 for the second.

GGAUCUUCUCGAUCUAACAAAAAAGACAAAUCUGCCACAAAGCUUGAGAGCAUCAUCGGAUGCAGAGGCGGCAGCCUUCGGUGGCGCGAUAGCGUCAACGUUCUAAAGUAUGACACGCAAAACGCGUGCUCCGUUGAAUGGAGUUUAUCAUG and GGAUCUUCUCGAUCUAACAAAAAAGACAAAUCUGCCACAAAGCUUGAGAGCAUCAUCGGAUACAGAGGGGACAGCCUUCGGUGGCGCGAUAGCGCCAACGUUCUCAACUAUGACACGCAAAACGCGUGCUCCGUUGAAUGGAGUUUAUCAUG cannot be ordered by “polymerase ribozyme fitness (log ratio)” value: at most -4.2 for the first, at most -4.2 for the second.

Compared with GGAUCUUCUCGAUCUAACAAAAAAGACAAAUCUGCCACAAAGCUUGAGAGCAUCAUCGAAUGCAGAGGCGGCAGUCUUCGGUGGCGCGAUAUCGCCAAGGUUCUCAACUAUGACACGCAAAACGCGUGGUCCGUUGAAGGGAGUUUAUCAUG, GGAUCUUCUCGAUCUAACAAAAAAGACAAAUCUGCCACAAAGCUUGAGAGCAUCAUCGGAUGCAGAGGCGGCAGCCUUCGGUGGCGCGAUAGCGCUAACGUUCUCAACUAUGACACGCAAAACGCGCGCUCCGCUGAAUGGAGUUUAUCAUG is higher in “polymerase ribozyme fitness (log ratio)” value: at most -4.2 for the first, -3.3 for the second.

GGAUCUUCUCGAUCUAACAAAAAAGACAAAUCUGCCACAAAGCUUGAGAGCAUCAUCGGAUGCAGAGGCGGCAGCCUUCGGUGGCGGGAUAGCGCCAACGGUCUCAACUAUGACACGCAAAACGCGUGCUCCGUUGAAUGGAAUUUAUCAUG and GGAUCUUCUCGAUCUAACAAAAAAGACAAAUCUGCCACAAAGCUUGAGAGCAUCAUCGAAUGCAGAGGCGGCAGCCUUCGGUGGCGCGAUAGCGCCAACAUUCUCAACUAUGACACGCAAAACGCGUGCUCCGUUGAAUGCAGUUUAUCAUG cannot be ordered by “polymerase ribozyme fitness (log ratio)” value: at most -4.2 for the first, at most -4.2 for the second.

Going from GGAUCUUCUCGAUCUAACAAAAAAGACAAAUCUGCCACAAAGCUUGAGAGCAUCAUCGGAUCCAGAGGCGUCAGCAGUCGGUGGCGCGAUAGCGCCAACGUUCUCAACUAUGAUACGCAACACGCGUGCUCCGUUGAAUGGAGUUUAUCAUG to GGAUCUUCUCGAUCUAACAAAAAAGACAAAUCUGCCACAAAGCUUGAGAGCAUCAUCGGAUGCAGAGGCGGCAGCCUUCGGUGGCGCGAUAGCGACAACGUUCUCAACUAUGACACGCAAAACGCGUGCUCCGUUGAAUGGAACUUAUCAUG, the “polymerase ribozyme fitness (log ratio)” value rises from at most -4.2 to -3.04.

Going from GGAUCUUCUCGAUCUAACAAAAAAGACAAAUCUGCCACAAAGCUUGAGAGCAUCAUCGGAUGCAGAGGCGGCAGCCUUCGGUGGAGCGAUAGCGCCAACGUUCUCAACUAUGACACGCAAAACGAGUGCUCCGUUGAAUGGAGUUUAUCAUG to GGAUCUUCUCGAUCUAACAAAAAAGACAAAUCUGCCACAAAGCUUGAGAGCAUCAUCGGAUGCAGAGGCGGCAGCCUUCGGUGGAGCGAUAGUGCCAACGUUCUCAACUAUGACACGCAAAACGCGUGCUCCGAUGAGUGGAGUUUAUCAUG, the “polymerase ribozyme fitness (log ratio)” value falls from -1.75 to at most -4.2.

Going from GGAUCUUCUCGAUCUAACAAAAAAGACAAAUCUGCCACAAAGCUUGAGAGCAUCAUCGGAUGCAGAGGCGGCAGCCUUUGGUAGCGCGAUAGAGCCCACGUUCUCAACUAUGACACGCAAAACGCGUGCUCCGUUGAUUGGAGUUUAUCAUG to GGAUCUUCUCGAUCUAACAAAAAAGACAAAUCUGCCACAAAGCUUGAGAGCAUCAUCGGAUGCAGAGACGGCAGCCUUCGGUGGCGCGAUAGCGCCAACGUUCUCAACUAUGACACGCAAAACGCGUGCUCCGUUGAAUGGAGUUUAUCAUG, the “polymerase ribozyme fitness (log ratio)” value rises from at most -4.2 to -3.21.

First: GGAUCUUCUCGAUCUAACAAAAAAGACAAAUCUGCCACAAAGCUUGAGAGCAUCAUCGGAUGCAGAGGCGGCAGCCUUCGGUGGCGCGAUAGAGCCAACGUUCUCAACUAUGACACGCAAAACGCGUGCUCCGUUGAAUGGAGUUUAUCAUG
Second: GGAUCUUCUCGAUCUAACAAAAAAGACAAAUCUGCCACAAAGCUUGAGAGCAUCAUCGGAUGCAGAGGCGGCAGCCUUCGGUGGCGCGAUAGUGCCAACGUUCUCAACUAUGACACGCAAAACGCGUGCUCCGUUGAAUGGAGUUUAUCAUG
The “polymerase ribozyme fitness (log ratio)” value of the first is lower: -2.96 for the first, -1.68 for the second.

Compared with GGAUCUUCUCGAUCUAACAAAAAAGACAAAUCUGCCACAAAGCUUGAGAGCAUCAUCGGAUGCAGAGGCGGCAGCCUUCGGUGGCGCGAUAGGGCCAACGUUCUCAACUAUGACACGCAAAACGCGUGCUCCGUUGAAUGGAAUUUAUCAUG, GGAUCUUCUCGAUCUAACAAAAAAGACAAAUCUGCCACAAAGCUUGAGAGCAUCAUCGGAUGCAGAGGCGGCAGCCUUCGGUGGCGCGAUAGCGCCAACGUUCUCAACUAUGACACGCAAAACGCGUGCUCCGUUGAAUGGAGUUUAUUAUG is higher in “polymerase ribozyme fitness (log ratio)” value: -3.93 for the first, -1.55 for the second.
